# Results published in paper PMC6919601, “Identification of Plasmodium dipeptidyl aminopeptidase allosteric inhibitors by high throughput screening” (PLoS ONE, 2019).
# Several values for one entry are separate records, joined by “and”; a condition that tells them apart may be missing. Equal entries are not always repeated. About 230 (0.21%) of roughly 110,000 compounds showed an effect of 50% or more. The list shows a part of the results.
# Target: DPAP1 (Plasmodium falciparum, UniProt Q8IIJ9)
# Assay: primary screen, percent inhibition; read by cleavage of a fluorogenic dipeptide substrate; higher = more effect of the substance
# Set-up: species or system P. falciparum D10 trophozoite lysates; single well
# 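Further: 30 min substrate incubation versus DMSO and 10 µM JCP410 controls.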
# Chain of DPAP1 (Q8IIJ9 whole entry, looked up): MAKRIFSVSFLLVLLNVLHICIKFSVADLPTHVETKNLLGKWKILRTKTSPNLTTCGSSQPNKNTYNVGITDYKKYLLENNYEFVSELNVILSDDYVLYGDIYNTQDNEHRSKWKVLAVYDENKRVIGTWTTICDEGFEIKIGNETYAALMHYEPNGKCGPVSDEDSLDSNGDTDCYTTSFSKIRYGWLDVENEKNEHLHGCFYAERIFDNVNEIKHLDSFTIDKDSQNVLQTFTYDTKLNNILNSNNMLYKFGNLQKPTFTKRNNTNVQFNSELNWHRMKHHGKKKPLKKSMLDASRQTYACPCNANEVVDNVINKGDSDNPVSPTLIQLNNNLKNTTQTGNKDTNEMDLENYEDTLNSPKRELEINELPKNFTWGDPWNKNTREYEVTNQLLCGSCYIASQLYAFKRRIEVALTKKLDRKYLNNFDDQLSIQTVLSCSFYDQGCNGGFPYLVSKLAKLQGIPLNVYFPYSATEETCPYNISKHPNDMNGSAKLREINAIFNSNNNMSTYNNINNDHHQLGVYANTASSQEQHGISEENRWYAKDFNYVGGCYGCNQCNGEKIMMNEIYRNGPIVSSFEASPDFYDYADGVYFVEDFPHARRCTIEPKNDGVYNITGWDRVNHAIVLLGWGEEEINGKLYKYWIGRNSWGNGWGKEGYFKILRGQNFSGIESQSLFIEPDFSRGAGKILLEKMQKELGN
row,Structure (SMILES),% Inhibition @ 10 uM
1,N#CCNC(=O)[C@H](Cc1cc(Cl)c(O)c(Cl)c1)NC(=O)c1ccc(Cl)cc1,0.173%
2,CS(=O)(=O)Nc1ccccc1C(=O)NCCc1ccccc1,2.95%
3,CC1=C(C(=O)Nc2ccccc2C)C(c2ccccc2F)NC(=O)N1 (stereo not shown),47.4%
4,CCCc1ccc2c(N)c(C#N)sc2n1,-3.63%
5,O=C(NC1CCCCC1)c1cc(-c2ccccn2)nc2ccccc12,-5.8%
6,Cc1ccc2nc3c(cc(C(=O)NC4CCCCC4)c(=N)n3Cc3cccnc3)c(=O)n2c1,-3.27%
7,COc1ccccc1C(=O)NCc1ccc2c(c1)OCO2,-3.04%
8,CNCCCC1Sc2ccccc2Oc2ccccc21 (stereo not shown),-5.59%
9,CCO/N=C1/CC(c2ccccc2)Cc2noc(C)c21 (stereo not shown),-0.902%
10,CCCCCC(=O)c1c(C)[nH]c(C(=O)OCC)c1C,-0.771%
11,CCCN1CCC(N2CCN(C/C=C/c3ccccc3)CC2)CC1,-3.27%
12,Cc1nc2cc3sc(C)nc3cc2s1,-2.91%
13,Cc1nc(S(=O)(=O)N(C)Cc2ccccc2)c(C#N)c(C)c1Cl,0.503%
14,Cc1ccnc(NC(=O)c2cccs2)c1,-8.17%
15,CCC(=O)N(CCN(C(=O)CC)c1ccccc1)c1ccccc1,-2.58%
16,CNC(=O)/C(=C\c1ccco1)NC(=O)c1ccc(C)cc1,0.76%
17,CC(CN1CCOCC1)C(=O)c1ccccc1 (stereo not shown),-1.82%
18,CCc1cc(=O)oc2c(C)c3c(cc12)CN(Cc1ccc(OC)c(OC)c1)CO3,0.895%
19,O=C(Cc1ccccc1)Nc1c(-c2ccccc2)nc2ccccn12,0.813%
20,COc1ccc(C=O)cc1Cn1c(=O)n(CC(=O)NCc2ccccc2Cl)c(=O)c2sccc21,1.82%
21,CS(=O)(=O)N1CCN(Cc2ccc(C(F)(F)F)cc2)CC1,4.65%
22,O=C1CC(c2csc(-c3ccccc3)n2)C2(CCCCC2)O1 (stereo not shown),4.15%
23,O=C(CSc1ncnc2c1sc1nc(N3CCOCC3)c3c(c12)CCCC3)Nc1ccccn1,-5.41%
24,O=C(O)CSc1ccccc1C(=O)O,-3.21%
25,O=C(NC1CCCCC1)/C(=C\c1ccco1)NC(=O)c1ccc(Cl)cc1,-2.44%
26,FC(F)(F)c1ccc(N2CCN(c3ccc(Cl)nn3)CC2)nc1,-0.551%

row,Structure (SMILES),% Inhibition @ 10 uM
1,CCn1c2ccccc2c2cc(CNc3ccc(Br)c(C)c3)ccc21,-4.75%
2,O=C(NCc1ccccc1)N[C@@H](Cc1ccc2ccccc2c1)C(=O)N[C@@H](CCc1ccccc1)C(=O)C[N+](=O)[O-],-2.35%
3,O=C(c1ccc(CNS(=O)(=O)c2cccc(Cl)c2)cc1)N1CCCCC1,4.57%
4,CC(C)OCCCn1c(=O)c2ccccc2n2c(CCC(=O)NCc3ccco3)nnc12,-1.44%
5,CCCCOC(=O)/C(=C/C=C/c1ccccc1)NC(=O)c1ccccc1,0.685%
6,Cc1nc(CSc2nnc(-c3ccc(Cl)cc3)o2)cs1,-2.63%
7,CC(NC(=O)c1noc2c1COc1ccccc1-2)c1ccc2c(c1)OCCO2 (stereo not shown),21.3%
8,COc1cccc(C(c2c(O)oc3ccccc3c2=O)c2c(O)oc3ccccc3c2=O)c1,7.49%
9,CCC/N=C1\CC(c2ccccc2)CC(O)=C1C(=O)CCC (stereo not shown),-4.76%
10,CCCCCCSc1nc2nc(C)cc(C)n2n1,-3.01%
11,COc1ccc(-c2cnc3ncnc(O)c3n2)cc1,2.44% and 0.907%
12,COc1ccc(C2NCCc3cc(OC)c(OC)cc32)cc1OC (stereo not shown),-5.5%
13,O=C(Nc1ccc2ccccc2c1)c1ccc(Br)o1,-2.24%
14,Cc1cc(C)c(OCCNC(C)(C)C)c(Cl)c1,-2.97%
15,C=CCSc1nc2cc(OC)ccc2[nH]1,-0.582%
16,Cc1ccc(C)c(N(CC(=O)NC2CC3CCC2C3)S(=O)(=O)c2ccccc2)c1 (stereo not shown),-4.56%
17,O=C(O)CCc1ccc(-c2ccccc2)n1-c1cc(Cl)ccc1O,5.52%
18,COc1cccc(CNCc2c(C(=O)O)n(Cc3ccccc3F)c3cc(C)ccc23)c1,-0.177%
19,Cc1ccc(S(=O)(=O)Nc2ccccc2Cl)cc1C(N)=O,-1.65%
20,O=C1c2cccnc2C(=O)N1C1CCCCC1,-1.08%
21,FC(F)(F)c1cccc(-c2nnn3c2nc(NCc2ccco2)c2ccccc23)c1,-4.69%
22,Cc1ccc(OCCCCn2ccnc2)cc1,-5.96%
23,Cc1ccc(CN(CC(=O)NCc2ccncc2)S(=O)(=O)c2ccc(C)cc2)cc1,0.389%
24,COc1ccc(OC)c(NC(=O)C2=C(C)NC(=O)NC2c2cccc(Cl)c2)c1 (stereo not shown),2.4%
25,CCOC(=O)C1=C(C)N=c2s/c(=C\c3cccc4ccccc34)c(=O)n2C1c1ccc(C)cc1 (stereo not shown),1.27%
26,CC1=C(C(=O)NC(C)c2ccccc2)C2(CCC(C)CC2)OC1=O (stereo not shown),3.19%

row,Structure (SMILES),% Inhibition @ 10 uM
1,Cc1ccccc1C(=O)Nc1ccc2nc(SCC(=O)NC3CC3)sc2c1,-6.34%
2,CCOC(=O)C1CCCCN1Cc1ccc(-c2ccccc2)cc1 (stereo not shown),1.55%
3,c1ccc(OCc2nn3c(Cn4cnc5ccccc54)nnc3s2)cc1,-0.45%
4,Cc1ccccc1-c1cccc(C(=O)N[C@@H](CC(C)C)C(=O)NCC#N)c1,-0.0207%
5,Cc1nn(-c2ccccc2)c2sc(C(=O)n3nnc4ccccc43)cc12,-3.74%
6,Cc1cc(NC=C2C(=O)CC(C)(C)CC2=O)no1,-4.41%
7,CCC(=O)Nc1ccc(N2CCOCC2)cc1,-7.39%
8,CC(C)CC(NC(=O)c1ccc(NC(=O)NCc2cccnc2)cc1)C(=O)NCC#N (stereo not shown),3.66%
9,CCCc1n(CC(O)COCC2CC=CCC2)c2ccccc2[n+]1C (stereo not shown),2.48%
10,CCCN(CCC)C(=O)CN1Cc2ccccc2C1=O,-0.234%
11,N#CCNC(=O)[C@@H]1CCCC[C@@H]1CS(=O)(=O)c1ccc(F)c(F)c1,-6.46%
12,CC(C)CC12CN3CCN(CC(C3)C1O)C2 (stereo not shown),-0.759%
13,Cc1ccccc1Oc1cc(-n2ncc(C#N)c2N)ncn1,-1.84%
14,CCCCCCOC(=O)C1=C(C)NC(=O)NC1c1ccc(Cl)cc1Cl (stereo not shown),4.35%
15,O=C(CSc1ncnc2[nH]cnc12)Nc1ccccc1C(F)(F)F,-9.28%
16,CCOCCCNC(=O)C1CCN(Cc2nc(-c3ccc(Cl)cc3)oc2C)CC1,-1.05%
17,c1ccc(-c2cc3c(nn2)CCc2nonc2-3)cc1,-3.82%
18,c1cc[n+](Cc2cccc3nc4ccccc4cc23)cc1,1.82%
19,CCn1c(COc2ccccc2C)nc2ccccc21,-6.4%
20,CCC(Oc1ccccc1)C(=O)NCCc1ccc(F)cc1 (stereo not shown),1.65%
21,CC(C)OCCCNC(=O)C1CCN(S(=O)(=O)N2CCCCC2)CC1,5.23%
22,Cc1nn(-c2ccccc2)c2nc(-c3ccco3)cc(C(F)(F)F)c12,1.72%
23,Cn1c(CCNC(=O)c2ccccc2)nc2ccccc21,-0.58%
24,COc1cc(C2c3[nH]c4ccccc4c3CCN2C(C)=O)cc2c1OCO2 (stereo not shown),1.38%
25,COc1ccc2oc(=O)c(NC(=O)c3ccc(Br)cc3)cc2c1,5.91%
26,CCSc1nnc(NC(=O)c2nc(SC(C)C)ncc2Cl)s1,2.41%

row,Structure (SMILES),% Inhibition @ 10 uM
1,Cc1ccc(S(=O)(=O)c2nnn3c2nc(NC(C)C)c2ccccc23)cc1,-3.08%
2,O=C(c1cc2c(s1)-c1ccccc1OC2)N1CCN(c2ncccn2)CC1,0.291%
3,CN1CCN(CCCNC(=O)c2cc3c(-c4ccccc4F)nn(C)c3s2)CC1,2%
4,Cc1[nH]c2ccccc2c1CCNC(=S)NCc1ccccc1,-3.94%
5,COc1cc2c(cc1OC)C(c1ccccc1C(F)(F)F)N(C(C)=O)CC2 (stereo not shown),-2.32%
6,CCOC(=O)c1c(C)[nH]c(C)c1S(=O)(=O)N1CCC(C(=O)N(C)C2CCCCC2)CC1,-7.86%
7,c1nc2c3c4c(sc3ncn2n1)CCCC4,8.58%
8,COc1ccccc1Oc1ccccc1OC,-11.9%
9,CCn1c2ccccc2c2cc(CN3CCN(c4ccccc4C)CC3)ccc21,-2.81%
10,Cn1ncc(Br)c1C(=O)NC1CCCCC1,-4.21%
11,O=C(C(NS(=O)(=O)c1cccc2nsnc12)c1ccccc1)N1CCN(c2ccccn2)CC1 (stereo not shown),-3.23%
12,CC/C(=N\O)c1ccc(CCCCCC(=O)O)s1,-0.0369%
13,C=CCn1c(SCC(=O)NCCO)nc2sc(C)c(C)c2c1=O,-2.53%
14,N#CC1=C2SCC(O)(c3ccc(F)cc3)N2C(=O)CC1c1cccc(O)c1 (stereo not shown),-0.0235%
15,CCOCCCNc1oc(/C=C/c2cccs2)nc1C#N,1.46%
16,O=C(NCCc1ccccc1)Nc1ccc(Cl)cc1,-0.414%
17,CCOC(=O)N1CCc2c(sc3c2C(=O)NC(c2cc(Br)ccc2O)N3)C1 (stereo not shown),-0.958%
18,CCOc1ccc(CC(=O)Nc2c(C(N)=O)oc3ccccc23)cc1OCC,-13.5%
19,N#CCNC(=O)[C@H](CSCc1ccc(C(F)(F)F)cc1)NC(=O)c1ccccc1,1.35%
20,CC(C)SCCCOc1ccccc1[N+](=O)[O-],-0.414%
21,CCCOc1ccc(N2C(=O)CC(N3CCN(Cc4ccc5c(c4)OCO5)CC3)C2=O)cc1 (stereo not shown),2.44%
22,CC(=O)OC1CCC2(C)C(=CCC3C2CCC2(C)C3CC3CC=CCC32C(C)=O)C1 (stereo not shown),5.69%
23,O=C(Nc1ccc2c3c(cccc13)CC2)c1cccnc1Cl,-0.0619%
24,Clc1ccc(CN2CCN(Cc3ccccc3)CC2)cc1Cl,-0.0404%
25,Cc1ccccc1OC(C)C(=O)Nc1cccc(C)c1C (stereo not shown),2.48%
